Test results taken from the supplement of paper PMC11876631.
± gives the standard deviation of the averaged measurements. Laboratory Escherichia coli strains with one amino-acid change in an essential protein, pooled on minimal glucose agar with carbenicillin or gentamicin at twice the control MIC (plus kanamycin and chloramphenicol for the plasmids), 48 h. Fold change of barcode share against drug-free plates; higher = less susceptible. Active = above 20 in both replicates (the paper's putatively resistant). '<' = one read or none on drug, '>' = one read or none on a drug-free plate. Shares are relative, so most strains fall below 1 when a few take over. Listed are strains with at least 15 reads on both drug-free plates, and hits; most hits rest on fewer reference reads. Replicate rank correlation about 0.5. Edits are read from barcodes.

B1: glmS V95W (protein)
chain: MCGIVGAIAQRDVAEILLEGLRRLEYRGYDSAGLAVVDAEGHMTRLRRLGKVQMLAQAAEEHPLHGGTGIAHTRWATHGEPSEVNAHPHVSEHIWVVHNGIIENHEPLREELKARGYTFVSETDTEVIAHLVNWELKQGGTLREAVLRAIPQLRGAYGTVIMDSRHPDTLLAARSGSPLVIGLGMGENFIASDQLALLPVTRRFIFLEEGDIAEITRRSVNIFDKTGAEVKRQDIESNLQYDAGDKGIYRHYMQKEIYEQPNAIKNTLTGRISHGQVDLSELGPNADELLSKVEHIQILACGTSYNSGMVSRYWFESLAGIPCDVEIASEFRYRKSAVRRNSLMITLSQSGETADTLAGLRLSKELGYLGSLAICNVPGSSLVRESDLALMTNAGTEIGVASTKAFTTQLTVLLMLVAKLSRLKGLDASIEHDIVHGLQALPSRIEQMLSQDKRIEALAEDFSDKHHALFLGRGDQYPIALEGALKLKEISYIHAEAYAAGELKHGPLALIDADMPVIVVAPNNELLEKLKSNIEEVRARGGQLYVFADQDAGFVSSDNMHIIEMPHVEEVIAPIFYTVPLQLLAYHVALIKGTDVDQPRNLAKSVTVE
B2: glmS V95D (protein)
chain: MCGIVGAIAQRDVAEILLEGLRRLEYRGYDSAGLAVVDAEGHMTRLRRLGKVQMLAQAAEEHPLHGGTGIAHTRWATHGEPSEVNAHPHVSEHIDVVHNGIIENHEPLREELKARGYTFVSETDTEVIAHLVNWELKQGGTLREAVLRAIPQLRGAYGTVIMDSRHPDTLLAARSGSPLVIGLGMGENFIASDQLALLPVTRRFIFLEEGDIAEITRRSVNIFDKTGAEVKRQDIESNLQYDAGDKGIYRHYMQKEIYEQPNAIKNTLTGRISHGQVDLSELGPNADELLSKVEHIQILACGTSYNSGMVSRYWFESLAGIPCDVEIASEFRYRKSAVRRNSLMITLSQSGETADTLAGLRLSKELGYLGSLAICNVPGSSLVRESDLALMTNAGTEIGVASTKAFTTQLTVLLMLVAKLSRLKGLDASIEHDIVHGLQALPSRIEQMLSQDKRIEALAEDFSDKHHALFLGRGDQYPIALEGALKLKEISYIHAEAYAAGELKHGPLALIDADMPVIVVAPNNELLEKLKSNIEEVRARGGQLYVFADQDAGFVSSDNMHIIEMPHVEEVIAPIFYTVPLQLLAYHVALIKGTDVDQPRNLAKSVTVE
B3: glmS I181A (protein)
chain: MCGIVGAIAQRDVAEILLEGLRRLEYRGYDSAGLAVVDAEGHMTRLRRLGKVQMLAQAAEEHPLHGGTGIAHTRWATHGEPSEVNAHPHVSEHIVVVHNGIIENHEPLREELKARGYTFVSETDTEVIAHLVNWELKQGGTLREAVLRAIPQLRGAYGTVIMDSRHPDTLLAARSGSPLVAGLGMGENFIASDQLALLPVTRRFIFLEEGDIAEITRRSVNIFDKTGAEVKRQDIESNLQYDAGDKGIYRHYMQKEIYEQPNAIKNTLTGRISHGQVDLSELGPNADELLSKVEHIQILACGTSYNSGMVSRYWFESLAGIPCDVEIASEFRYRKSAVRRNSLMITLSQSGETADTLAGLRLSKELGYLGSLAICNVPGSSLVRESDLALMTNAGTEIGVASTKAFTTQLTVLLMLVAKLSRLKGLDASIEHDIVHGLQALPSRIEQMLSQDKRIEALAEDFSDKHHALFLGRGDQYPIALEGALKLKEISYIHAEAYAAGELKHGPLALIDADMPVIVVAPNNELLEKLKSNIEEVRARGGQLYVFADQDAGFVSSDNMHIIEMPHVEEVIAPIFYTVPLQLLAYHVALIKGTDVDQPRNLAKSVTVE
B4: glmS V95P (protein)
chain: MCGIVGAIAQRDVAEILLEGLRRLEYRGYDSAGLAVVDAEGHMTRLRRLGKVQMLAQAAEEHPLHGGTGIAHTRWATHGEPSEVNAHPHVSEHIPVVHNGIIENHEPLREELKARGYTFVSETDTEVIAHLVNWELKQGGTLREAVLRAIPQLRGAYGTVIMDSRHPDTLLAARSGSPLVIGLGMGENFIASDQLALLPVTRRFIFLEEGDIAEITRRSVNIFDKTGAEVKRQDIESNLQYDAGDKGIYRHYMQKEIYEQPNAIKNTLTGRISHGQVDLSELGPNADELLSKVEHIQILACGTSYNSGMVSRYWFESLAGIPCDVEIASEFRYRKSAVRRNSLMITLSQSGETADTLAGLRLSKELGYLGSLAICNVPGSSLVRESDLALMTNAGTEIGVASTKAFTTQLTVLLMLVAKLSRLKGLDASIEHDIVHGLQALPSRIEQMLSQDKRIEALAEDFSDKHHALFLGRGDQYPIALEGALKLKEISYIHAEAYAAGELKHGPLALIDADMPVIVVAPNNELLEKLKSNIEEVRARGGQLYVFADQDAGFVSSDNMHIIEMPHVEEVIAPIFYTVPLQLLAYHVALIKGTDVDQPRNLAKSVTVE
B5: glmS V95Q (protein)
chain: MCGIVGAIAQRDVAEILLEGLRRLEYRGYDSAGLAVVDAEGHMTRLRRLGKVQMLAQAAEEHPLHGGTGIAHTRWATHGEPSEVNAHPHVSEHIQVVHNGIIENHEPLREELKARGYTFVSETDTEVIAHLVNWELKQGGTLREAVLRAIPQLRGAYGTVIMDSRHPDTLLAARSGSPLVIGLGMGENFIASDQLALLPVTRRFIFLEEGDIAEITRRSVNIFDKTGAEVKRQDIESNLQYDAGDKGIYRHYMQKEIYEQPNAIKNTLTGRISHGQVDLSELGPNADELLSKVEHIQILACGTSYNSGMVSRYWFESLAGIPCDVEIASEFRYRKSAVRRNSLMITLSQSGETADTLAGLRLSKELGYLGSLAICNVPGSSLVRESDLALMTNAGTEIGVASTKAFTTQLTVLLMLVAKLSRLKGLDASIEHDIVHGLQALPSRIEQMLSQDKRIEALAEDFSDKHHALFLGRGDQYPIALEGALKLKEISYIHAEAYAAGELKHGPLALIDADMPVIVVAPNNELLEKLKSNIEEVRARGGQLYVFADQDAGFVSSDNMHIIEMPHVEEVIAPIFYTVPLQLLAYHVALIKGTDVDQPRNLAKSVTVE

target: Escherichia coli (laboratory strain); assay: barcode share on antibiotic plates over drug-free plates; higher = less susceptible; conditions: antibiotic: carbenicillin; 2× MIC (3.1 µg/mL)
Method: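 A pool of E. coli strains, each edited to carry one amino-acid change in an essential protein, was grown for 48 h on minimal glucose agar with or without antibiotic; strain barcodes were sequenced; mean of two replicates.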

B1 was tested. Which “fold change of barcode share” value did it give?
The value was 0.394 ± 0.13.

How did the “fold change of barcode share” value turn out when B2 was run?
Its value is 0.207 ± 0.15.

For B3, which “fold change of barcode share” value is on record?
The value was 0.57 ± 0.39.

Which “fold change of barcode share” value does the source give for B4 here?
The value was 0.327 ± 0.049.

B5 was tested. Which “fold change of barcode share” value did it give?
The value was 0.301 ± 0.086.

same assay, conditions: antibiotic: gentamicin; 2× MIC (MIC 0.45 µg/mL)

B1 was tested. Which “fold change of barcode share” value did it give?
Its value is 0.00367 ± 0.0015.

B2 was tested. Which “fold change of barcode share” value did it give?
The value was 0.0068 ± 0.0054.

B3 was tested. Which “fold change of barcode share” value did it give?
The value was < 0.017.

How did the “fold change of barcode share” value turn out when B4 was run?
Its value is 0.00586 ± 0.0065.

With B5 as the protein, how does the “fold change of barcode share” value read?
Its value is < 0.00185.
